The other results are listed elsewhere or left out.
These compounds were tested on HSkMC (human skeletal muscle cells) (assay: cytotoxicity call (relative viability < 0.9)). Details: 10 µM.

| SMILES | cytotoxicity call |
| --- | --- |
| C[C@@H]1CN([C@@H](C)CO)C(=O)CCCn2cc(nn2)CO[C@H]1CN(C)S(=O)(=O)c1ccc2ccccc2c1 | inactive |
| Cn1cc(CN2CCC(C(=O)N[C@@H](c3ccc(F)cc3)c3ccc4ccccc4n3)CC2)c2ccccc21 | active |
| C[C@H](CO)N1C[C@H](C)[C@@H](CN(C)Cc2ccc(Oc3ccccc3)cc2)Oc2ccc(NC(=O)Nc3cccc4ccccc34)cc2C1=O | inactive |
| COc1ccccc1CNC(=O)C[C@H]1C[C@@H]2c3cc(NC(=O)C4CCOCC4)ccc3O[C@@H]2[C@@H](CO)O1 | inactive |
| Cc1noc(C)c1NC(=O)Nc1cccc2c1O[C@H](CN(C)C(=O)Nc1cccc3ccccc13)[C@H](C)CN([C@H](C)CO)C2=O | inactive |
| CO[C@H]1CN(C)C(=O)c2ccc(NC(=O)NC(C)C)cc2OC[C@H](C)N(Cc2ccc(-c3ccccn3)cc2)C[C@@H]1C | inactive |
| CCC(=O)N[C@@H]1C=C[C@H](CC(=O)OC)O[C@H]1CO | inactive |
| C[C@@H]1CN([C@@H](C)CO)C(=O)c2cccc(NC(=O)C3CCOCC3)c2O[C@@H]1CN(C)S(=O)(=O)c1ccc(Cl)cc1 | inactive |
| Cn1cnc(S(=O)(=O)N2C[C@@H](O)COC[C@H]3O[C@@H](CC(=O)NC4CCC4)CC[C@@H]32)c1 | inactive |
| COC(=O)[C@H](Cc1ccc(-n2cc(-c3cccc(/C=C/C(=O)NO)c3)nn2)cc1)N1CC2=C[C@H]([C@@H](O)Cc3ccccc3)n3c(=O)n(C)c(=O)n3[C@@H]2[C@@H](C2CC2)O1 | inactive |
| C[C@H](CO)N1C[C@H](C)[C@@H](CN(C)Cc2ccc(C(F)(F)F)cc2)Oc2c(NC(=O)Nc3ccccc3)cccc2C1=O | inactive |

From the antibiotic and cytotoxicity screens of Wong et al. (2023)
